Laboratory results as given in PubChem BioAssay AID1347120 (National Center for Advancing Translational Sciences (NCATS), 2019).
In all, about 390,000 compounds went through this assay and about 930 (0.24%) were called active. Inconclusive results, whose numbers are uncertain, are shown with a selection of clear calls. Calls follow the shape of the dose curve; as a rule, active = well fitted activation curve with a large enough effect; inconclusive = small, poorly fitted or top-dose-only effect; inactive = no such curve, though single readings can be large or run the other way. Potencies of inconclusive entries are doubtful fits and often do not repeat.

Test: qHTS for Suppressors of FUS Proteinopathy: Primary screen using FUS-linked yeast assay; also: nearly all actives have a fitted effect of over 55% in size;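 as to growth rescue (activation): plate controls were DMSO vehicle for no effect and reference control for full effect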
Settings: S. cerevisiae FUS-expressing, OD600, 24 h; Potency: growth rescue; growth rescue (activation): at 76.6 µM (top of the series)
How it was run: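 Restored growth of FUS-toxic S. cerevisiae, read as 600 nm absorbance after 24 h at 30C in galactose medium (starting OD 0.005). Controls CP55940 and DMSO.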
Potency is read from the fitted curve at half-maximal effect; tags tell the direction and shape of the fitted curve.

Row | SMILES | Potency | growth rescue (activation)
1 | C[C@H](O)[C@@H]1C(=O)N2CCc3ccc(-c4ccccc4)cc3[C@@H]2C[C@@H]1N(C)C(=O)NC1CCCCC1 | inconclusive: 28.2 µM [activator, single point] | –
2 | CC1(C)Cc2ccccc2-c2nc(NCCCO)n(-c3ccccc3)c(=O)c21 | inconclusive: 22.4 µM [activator, partial curve, poor fit] | –
3 | CC(=O)Nc1ccc(Nc2nc(-c3sc(NC(C)=O)nc3C)cs2)cc1 | inconclusive: 31.6 µM [activator, single point] | –
4 | COc1cc(C(=O)NCc2nnnn2-c2ccc(C)c(C)c2)cc(OC)c1OC | – | inactive: 20.6%
5 | Cc1ccc(C)c(NC(=O)Cn2c(=O)n(Cc3nc(C)no3)c(=O)c3cc4c(cc32)OCO4)c1 | – | inactive: 4.89%
6 | COc1ccc(CNc2nc(-c3ccco3)nn2S(=O)(=O)c2ccc3ccccc3c2)cc1OC | inconclusive: 20 µM [activator, partial curve, poor fit] | –
7 | CCN(CC)S(=O)(=O)c1ccc(NC(=O)COC(=O)c2ccc(-n3nc(C)cc3C)cc2)cc1 | inconclusive: 39.8 µM [activator, partial curve, poor fit] | –
8 | COc1ccc(-c2cnc3c(NC=O)cc(-c4cccc(NS(C)(=O)=O)c4)cn23)cc1OC | inconclusive: 35.5 µM [activator, single point] | –
9 | O=C(Nc1ccc(F)c(Cl)c1)c1cc(C2CCCN(C(=O)c3cccs3)C2)on1 (stereo unspecified) | – | inactive: 43.6%
10 | C[C@@H]1CN([C@H](C)CO)S(=O)(=O)c2ccc(C#Cc3ccccc3)cc2O[C@H]1CN(C)C(=O)Nc1ccc2c(c1)OCO2 | inconclusive: 39.8 µM [activator, partial curve, poor fit] | –
11 | CN(C(=O)c1cccc(NC(=O)Cc2ccc(NC(=O)C3CCN(C(=O)C4CCC4)CC3)cc2)c1)C1CCCCC1 | inconclusive: 17.8 µM [activator, single point] | –
12 | Cc1cccc(C)c1NC(=O)CSc1cc(C(=O)c2nccn2C)c2ccccc2n1 | – | inactive: 16.9%
13 | COc1ccc(CNC(=O)C(OC(C)=O)c2ccccn2)cc1 (stereo unspecified) | inconclusive: 25.1 µM [activator, partial curve, poor fit] | –
14 | CCOC(=O)C(=O)N1CCN(c2nc(-c3ccc(Cl)cc3)cs2)CC1 | – | inactive: 22.1%
15 | CCn1cc(NC(=O)Nc2ccccc2C(=O)OC)c(C(N)=O)n1 | inconclusive: 14.1 µM [activator, partial curve, poor fit] | –
16 | CCn1cc(C(=O)NCc2ccco2)c(=O)c2cc(S(=O)(=O)N3CCCCCC3)ccc21 | inconclusive: 50.1 µM [activator, single point] | –
